According to the supplement of paper PMC3334620:
Whole data set: some 33,000 sequences, median “E-score (-0.5 to 0.5)” near -0.01, cut for the highest 2% near 0.26. The list shows a part of the results.

biological target: Ste12 (UniProt P13574); assay: PBM E-score (8-mer binding enrichment) (E-score (-0.5 to 0.5)); higher = stronger / more preferred TF binding; most listed sequences are background and not binding sites; settings: protein concentration: 200 nM; construct: GST-DNA-binding domain
Method in brief: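 Bound GST-tagged yeast transcription factors, applied at about 100-200 nM to double-stranded universal all-10-mer Agilent arrays, were detected with fluorescent anti-GST. Scans were normalised with masliner. A modified Wilcoxon-Mann-Whitney statistic, the E-score, was assigned to each ungapped eight-base word pooled with its reverse complement by the Universal PBM Analysis Suite.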

Point of comparison: GAATCAAC, “PBM E-score” value 0.0498. Against it:
- CGCCTACA — higher, 0.0882
- AGTAACAA — higher, 0.0502
- GGAACGGA — lower, 0.031
- AAAAGTGA — higher, 0.267
- GAGTCATA — higher, 0.0777
- ATATTTAC — higher, 0.219
- ATGGTGGC — lower, 0.0316
- CACGAGGA — lower, -0.183
- CCGAGCTA — lower, 0.0483
- CATGCAAG — higher, 0.0792
- AGATGAGC — lower, -0.103
- TATGTAGA — lower, 0.0155
- CGCCAGGC — lower, -0.0821
- CTTTTCCA — higher, 0.0778
- AGTACTCG — lower, -0.0202
- ACTCCGCT — lower, -0.115
- CGTGCCTA — lower, -0.201
- CTCAGGCC — lower, -0.097
- ATCCCCCC — lower, -0.159
- ACCGCAAC — higher, 0.1
- CGTATATC — lower, -0.068
- TCAATCAA — higher, 0.21
- AGGTTAGA — lower, -0.0279
- AGTTCACA — lower, 0.0194
- ACTATCAT — higher, 0.164
- ATGGAGTG — lower, -0.122
- AAGTGAAG — higher, 0.0915
- AAACGGCT — lower, -0.115
- GCCATTAA — lower, -0.0508
- GCATGCAC — lower, -0.201
- CCGAATCA — lower, 0.0251
- TAGGGGAA — lower, -0.0488
- ACAGTCCC — lower, -0.178
- CCTTGAAG — lower, -0.00773
- ACCCCATA — lower, 0.048
- AGAAGGAT — lower, -0.202
- TACGTGCA — lower, 0.0392
- CACATCAA — higher, 0.185
- GGGTCGTA — lower, -0.11
- GACACGAA — lower, 0.032
- AGCTCTAG — lower, -0.16
- CATGGGTC — lower, -0.111
- GCGTTATA — lower, -0.0221
- GACTCCCA — lower, -0.0191
- AGACTTCA — lower, -0.0614
- AATAAGAA — higher, 0.276
- AAAGAATA — higher, 0.195
- GTCCTCTA — lower, -0.371
- TCCCGACA — higher, 0.127
- CTTCGTGC — higher, 0.0941
- AGGGCGTC — lower, -0.15
- ATGGGCCC — lower, -0.0824
- CAACGGAC — lower, -0.116
- CGCTTGCA — higher, 0.181
- CGCCGCAG — lower, 0.0202
- ATTTTACA — higher, 0.113
- CTCCCCTA — lower, -0.0541
- TAGCCTCA — lower, -0.14
- CTCAATCC — lower, 0.0296
- GGCGACTA — lower, -0.213
- ACGCCAGC — lower, -0.206
- AGTCGATC — lower, -0.0899
- TCCTAACA — lower, -0.0578
- TACCACAA — higher, 0.185
- AGCAGGCA — lower, -0.153
- ACGACAAA — higher, 0.21
- CTTCAGCC — lower, -0.187
- ACGTAGCG — lower, -0.0127
- AAAACACC — higher, 0.213
- CGAGTTAA — higher, 0.112
- CACTGAAG — lower, -0.03
- CGGGCCTC — lower, 0.0175
- CAAGGTCG — lower, -0.0128
- AAGAGTCT — lower, -0.126
- CCATTAGC — lower, -0.0312
- CGATTCAG — higher, 0.0921
- GCTGTCTA — lower, -0.262
- AATTGGTA — higher, 0.0529
- AAGTTATA — higher, 0.222
- GGCGTATA — higher, 0.0675
- ACCGAACC — lower, -0.13
- ATGCTAGA — lower, -0.0991
- GATTAACA — lower, 0.0472
- ACAAAGCG — higher, 0.0772
- GCTAGCGA — lower, -0.0311
- ACGGAGAC — lower, -0.029
- TCTAGTAA — lower, 0.0451
- CATCCTGG — lower, 0.0367
- ATTACCGG — lower, 0.00155
- ATGGATGG — lower, -0.0589
- CGGCTCGA — lower, -0.106
- AGACCTGG — lower, -0.132
- TCATTAGA — higher, 0.111
- ATTACTAC — lower, -0.103
- TCGCGCCA — higher, 0.102
- ATTAGCAG — lower, -0.0098
- AGTTTCGA — higher, 0.11
- CCATTGGC — lower, -0.0456
- CGTAGGAA — lower, 0.00401
- ACAGCCGT — lower, -0.0628
- CTAACCGC — lower, -0.0118
- CCGGAGAG — lower, -0.0466
- AGGTGGTG — lower, 0.0096
- CTATAGAA — lower, -0.0569
- GATGATCC — lower, -0.232
- GGTATTTA — higher, 0.167
- AAAAGAAG — higher, 0.072
- ACGGACCG — lower, -0.187
- GAACTTGA — higher, 0.142
- ATGCTTTC — higher, 0.075
- ATGATGTA — higher, 0.146
- AGCACATA — lower, -0.0905
- ATTTCCCC — higher, 0.142
- GATGCACA — lower, -0.112
- GTTGTCGA — lower, -0.00271
- ACTCGGGC — lower, -0.196
- TACCTACA — lower, -0.0205
- AACTTTCC — higher, 0.0828
- ATAAGAAA — higher, 0.195
- ACTAACCG — lower, -0.0839
- ACCCGAGT — lower, -0.0216
- TAGTCGGA — lower, -0.006
- AACGAAAA — higher, 0.213
- AACGAGAA — higher, 0.128
- CTTACGTA — lower, -0.24
- CTAACTCC — lower, -0.0702
- TTATCGAA — higher, 0.196
- ATCGTAGA — lower, -0.129
- CCGGGCTC — lower, -0.103
- ACGCCAAG — lower, 0.0325
- GAACGAGC — lower, -0.105
- AGGGTCGC — lower, -0.00242
- AATAAGCA — lower, -0.0033
- AGGACACG — lower, -0.307
- AATTATCA — higher, 0.203
- AAGAAGCG — lower, -0.162
- CGATTCAC — lower, -0.0898
- AACTGGAC — lower, 0.0281
- ATACGCAA — lower, 0.0223
- ACTGGGGA — lower, -0.161
- AGTCTTGA — lower, -0.105
- ATGCCTAA — lower, -0.192
- ACCGCCTG — lower, -0.127
- ATCTACCA — higher, 0.107
- GAGTGACA — higher, 0.0563
- GAGGACTA — lower, -0.0759
- CTAACGTC — lower, -0.0422
- CGCTGGAG — lower, -0.0992
- CACGAACG — lower, -0.0651
- AACCTCCA — lower, -0.228
- GACTGCGA — higher, 0.0971
- GATGGTGA — higher, 0.118
- CCCACCAC — lower, -0.0565
- GCGGGAAC — lower, -0.188
- CAAGCTGG — lower, -0.0954
- CCAACGCC — lower, -0.0735
- ATTGCAAC — higher, 0.105
- AAACCGGG — higher, 0.194
- TAGATAGA — lower, -0.0561
- TCATTCGA — higher, 0.0623
- AACCCCCG — lower, -0.133
- AACCCCAG — lower, 0.0169
- AACTGCGA — lower, -0.0262
- ATTTTTCC — higher, 0.204
- CTGGAAGA — lower, -0.0572
- AGAAAGAA — higher, 0.151
- GCTGCTGA — lower, -0.0225
- AGGTGCGA — lower, -0.00836
- CTGACCGA — lower, -0.00851
- GCTCTCCA — lower, -0.149
- AACTTTCA — higher, 0.118
- GCAGCGTA — lower, -0.201
- AAAGGCCT — lower, -0.254
- AAAGAACC — higher, 0.132
- ATTTAGAC — lower, 0.00579
- GCGCGTAA — lower, -0.0247
- TACTGATA — higher, 0.198
- AGTCACAC — lower, -0.0427
- CTTTTTGC — higher, 0.228
- AGATGTAG — lower, -0.0399
- AGGGATAG — lower, -0.00141
- AGATCGGC — lower, -0.13
- CTAGTTCA — lower, 0.0304
- GAACCTTC — lower, -0.0978
- GAAAGCGC — lower, -0.156
- AACCAGTG — lower, -0.113
- CGAAGCAG — lower, -0.0736
- TTCCTCAA — lower, -0.00471
- ACAGCTGG — lower, -0.0214
- ACCAAAGT — lower, 0.00543
- GTAAAAGA — lower, 0.0116
- CACTTTAA — higher, 0.159
- CGTGTACA — lower, -0.0949
- ATGGCGTG — lower, -0.00074
- AGATTCGC — lower, -0.0107
- ATACCACG — lower, 0.0272
- CACTGCAG — lower, -0.103
- CCTAGACG — lower, -0.134
- CTAATTTA — higher, 0.157
- GATTGTGC — lower, -0.0156
- CCTGCCGC — higher, 0.0664
- TCGGTAAA — higher, 0.194
- ACATCGCG — higher, 0.111
- TAAGTTAA — higher, 0.0894
- CGTCAACG — lower, 0.0143
- ACCAGCTC — lower, -0.127
- ATGCCCGG — lower, -0.0194
- AAAATCCT — lower, 0.0166
- CCTGGATA — lower, -0.167
- GATCGGCC — lower, -0.119
- GTATGCAC — lower, -0.304
- CACTTTTC — higher, 0.209
- CCGCCGCG — higher, 0.156
- ATCCTTTG — higher, 0.0895
- ACCTTTTA — lower, -0.0665
- ACAGGCCG — lower, -0.142
- AACACTCA — higher, 0.14
- AGGAGCCA — lower, -0.311
